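Compound exposure: 48 hours, 5 concentrations, 96-well plates. GI50 is the concentration that inhibits growth by half. TGI: concentration producing complete growth inhibition.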

The assay has as its system NCI-H322M lung. In words: DTP human tumour cell line panel, 48 h.
The TGI is the concentration giving total growth inhibition. Consider `Cc1cc(Cl)ccc1C1OC(=O)c2c1ccc1ccccc21` (stereo unspecified), for which the TGI is above 100 µM. `CC(C)c1cc(OCC(O)CO)cc(C(C)C)c1` (stereo unspecified) returned a total growth inhibition concentration (TGI) above 100 µM. Consider `Cc1cc2c(C)n(Cc3ccc(Cl)cc3Cl)nc2c(C(=O)O)c1C`, for which the TGI is above 100 µM.

Broadly, the GI50 is the concentration that inhibits growth by half. Take `C/C=C(\C)C(=O)N[C@H]1C(O)C[C@]2(C)C3CC[C@@]4(C)C(CC[C@@H]4C(C)N(C)C)C3CCC2C1O` (stereo partly specified): the GI50 is 4.19 µM and the TGI worked out at 18 µM. With `O=c1[nH]n(Cc2ccccc2Cl)c2ccccc12`, the total growth inhibition concentration (TGI) was above 100 µM. Compound `O=C1OC(CN2CCOCC2)CN1/N=C/c1ccc([N+](=O)[O-])o1` (stereo unspecified) returned a total growth inhibition concentration (TGI) of 98.4 µM. Regarding `NCc1cc(O)c(O)c(O)c1`, the TGI was above 100 µM.

For the compound `CC12Oc3ccc4ccccc4c3CC1Cc1c(ccc3ccccc13)O2` (stereo unspecified), the total growth inhibition concentration (TGI) is above 100 µM. As to `CN(C)CCN(C(=Nc1ccccc1)N1CCCC1)c1ccccc1`, the TGI is above 100 µM.

The compound `COc1cc2c(cc1OC)C(=O)N(NC1=NCCN1)C2=O` came in with a TGI above 100 µM. `C/C(=N\NC(=S)NCc1ccccc1)c1nc2ncccc2[nH]1` registered a TGI of 61.2 µM. Still for that read-out and setting: as for `CCC1CN2CCC3(c4ccccc4)CC(C(=O)OC)=CC1C23` (stereo unspecified), the figure is 30.4 µM; as for `CC1=C(C(=O)Nc2ccc([N+](=O)[O-])cc2)C(c2ccccc2F)C(C(=O)Nc2ccc([N+](=O)[O-])cc2)=C(C)N1`, 90.9 µM. Take `N#CC1=C(Cl)NC(Cl)=C(C#N)C1c1c(Cl)cccc1Cl`: the TGI was above 100 µM. Turning to `COC(=O)c1c(-c2ccccc2)c2sc3ccccc3n2c1N`, the TGI was above 100 µM. `N#Cc1sc2c(c1O)c(=O)n(-c1ccccc1)c(=S)n2-c1ccccc1` showed a TGI above 100 µM. Turning to `COc1ccc2c(c1OC)C(=O)c1cnccc1C2=O`, the TGI was above 100 µM. `O=C1c2ccccc2-c2c1c(-c1cccc(Br)c1)nc1ccc3ccccc3c21` returned a TGI above 100 µM. Still for that read-out and setting: as for `Cc1cccc2nc3cccc(C(=O)NCCN(C)C)c3nc12`, the figure is 4.8 µM. Turning to `CCn1c2ccccc2c2cc(C(O)c3cccc4ncccc34)ccc21` (stereo unspecified), the GI50 is 0.133 µM and the TGI is above 100 µM. Compound `COc1ccc(N=[N+]([O-])c2ccc(OC)cc2)cc1` displayed a total growth inhibition concentration (TGI) above 100 µM.

In turn, `Cc1ccccc1-n1c(C)nc(-c2ccccc2)cc1=O` gave a TGI above 100 µM.

`O=C(O)CCSC(=O)Nc1ccc(N=Nc2ccccc2)cc1` returned a TGI above 100 µM. As for `Cc1cc(OCc2nnc3n2N=C(c2ccc(Cl)cc2Cl)CS3)ccc1Cl`, the GI50 is above 100 µM and the TGI is above 100 µM. For `CC(=O)C1=CCC2c3[nH]c4ccccc4c3CCN2C1` (stereo unspecified), the TGI is above 100 µM. On to `CC(C)(C)S(=O)OC12CC3CC(CC(C3)C1)C2` (stereo unspecified), for which the TGI was above 100 µM.

In turn, `O=C(/C=C1/Nc2ccc([N+](=O)[O-])cc2NC1O)c1cccc([N+](=O)[O-])c1` (stereo unspecified) registered a TGI above 100 µM.

In turn, `CCCC[C@H]1CCN2C[C@@H](O)[C@@H](O)[C@H]2[C@@H]1O` came in with a TGI above 100 µM. `O=c1[nH]c2c(c(=O)[nH]1)SSC2` gave a TGI of 33.5 µM. In turn, `OC(C/C=N/Nc1ccccc1)(C(F)(F)Cl)C(F)(F)Cl` showed a TGI above 10 µM. Consider `Cc1nc2c(=O)n3c4c(cccc4c2o1)CCC3`, for which the total growth inhibition concentration (TGI) is above 100 µM. The compound `COP(=O)(OC)/C(=C\c1cn(C(c2ccccc2)(c2ccccc2)c2ccccc2)cn1)NC(C)=O` showed a total growth inhibition concentration (TGI) above 100 µM.

Take `CC[C@@H]1/C=C/C=C/C[C@H](C)[C@@H](O)[C@](C)(O)C(=O)[C@H](C)[C@@H](O)[C@H](C)C(=O)[C@H](C)[C@@H](O)[C@H](C)/C=C/C(=O)O[C@H]2[C@@H](C)[C@@H](CC1)O[C@@]1(CC[C@@H](C)[C@@H](CC(C)O)O1)[C@@H]2C` (stereo partly specified): the TGI turned out to be 12.9 µM. As to `CCN(CC)CCSCCCNc1c2ccc(Cl)cc2nc2ccc(OC)cc12`, the GI50 is 0.496 µM and the TGI amounted to 2.48 µM. `COc1ccc(C(=O)Nc2ccc3oc(-c4ccccc4)nc3c2)cc1`: the total growth inhibition concentration (TGI) was above 100 µM. Turning to `C/C=C/[C@H](O[Si](C)(C)C(C)(C)C)[C@@H](O)/C=C/C(=O)OCC`, the TGI came to 81.2 µM. Still for that read-out and setting: as for `O=C(NNC(=O)c1ccccc1O)c1ccc(O)cc1`, the figure is above 100 µM; as for `COC(=O)C1=CC2OC1(C)CCC2=O` (stereo unspecified), above 100 µM. `Cc1cc2c(cc1Cl)SC(NNc1ccc([N+](=O)[O-])cc1)=NS2(=O)=O` returned a concentration for total growth inhibition (TGI) above 10 µM. Compound `CCc1nc(N)nc(N)c1-c1ccc(Cl)c(N=CN(C)C)c1` registered a TGI above 100 µM. `CCc1n[nH]c(=O)n1CCO` gave a total growth inhibition concentration (TGI) above 100 µM.

On to `COc1ccc(C2=CC(c3ccc(OC)c(OC)c3)c3c(c4ccccc4oc3=O)O2)cc1OC` (stereo unspecified), for which the GI50 is 4.82 µM and the TGI was above 100 µM. In the case of `CC(=O)Oc1ccc(C(c2ccc(OC(C)=O)cc2)c2ccccn2)cc1`, the GI50 was 0.381 µM and the TGI is above 71.7 µM. With `O=C(N/N=C\C(F)(F)F)c1ccncc1`, the TGI was above 100 µM.

With `CC1(C)OC(=O)C=C([O-])O1.CC1(C)OC(=O)C=C([O-])O1.CC[O-].CC[O-].[Ti+4]`, the GI50 was above 100 µM and the TGI is above 100 µM. Consider `COc1cc(/C=C/C(=O)c2cccnc2Nc2ccc(F)cc2)cc(OC)c1OC`, for which the GI50 is 4.83 µM and the TGI is above 100 µM. `CC(=O)NNc1nc(C)c(C(=O)NNC(=O)C(=O)Nc2c(C)cccc2C(C)(C)C)s1`: the TGI is above 100 µM. `O=C(O)c1ccccc1NC(=O)C1CCCCC1` returned a total growth inhibition concentration (TGI) above 100 µM. The same measure, in the same setting: for `CC1(C)O[C@@H](CBr)C[C@H](C[C@H]2C[C@@H](O)C[C@@H](CCOCc3ccccc3)O2)O1` the value was 34.4 µM; for `O=C1OC(c2ccccc2)=N/C1=C\c1cccc(F)c1`, above 100 µM. Take `C[C@]12CC[C@H](O)CC1=CC[C@@H]1C2CC[C@]2(C)Nc3c(cnn3-c3ccc(F)cc3)CC12` (stereo partly specified): the TGI was above 86 µM. Take `COc1ccc2nc(NC(=O)C(=O)C(C#N)c3ccc(Cl)c(Cl)c3)sc2c1` (stereo unspecified): the TGI was above 100 µM. Compound `O=[N+]([O-])c1cccc(C2=NOC3C4CCC(C4)C23)c1` (stereo unspecified) came in with a TGI above 100 µM.

`COc1cc(C2C(Cl)C(=O)N2NC(=O)c2ccc(NC(C)=O)cc2OC)ccc1O` (stereo unspecified) yielded a TGI of 16.7 µM.

Compound `C[N+](C)=c1nc(N2CCc3ccccc3C2)ss1` returned a TGI above 100 µM. `O=C(/C=C(\O)c1ccccc1)c1cc(-c2ccccc2)n(-c2ccccc2)n1` had a total growth inhibition concentration (TGI) of 95.9 µM. `O=C1c2ccccc2C(=O)c2oc(Br)cc21` gave a TGI of 3.03 µM. In turn, `COc1ccccc1CNC(=O)[C@H](Cc1ccc(O)cn1)NC(C)=O` came in with a concentration for total growth inhibition (TGI) above 100 µM. In turn, `O=[N+]([O-])c1ccc(S(=O)(=O)Cc2ccccc2)c2nonc12` came in with a TGI above 100 µM. The compound `O=C(CCN1CCOCC1)C(=Cc1ccccc1)C(=O)CCN1CCOCC1` gave a TGI of 38.4 µM. For `CC(CCCOC(c1ccccc1)(c1ccccc1)c1ccccc1)OC(=O)Nc1ccccc1` (stereo unspecified), the total growth inhibition concentration (TGI) is 27.7 µM.

As to `CC(C)COC(=O)c1ccc2[nH]c(O)c(C=Nc3ccc(S(N)(=O)=O)cc3)c2c1`, the GI50 is 1.69 µM and the TGI worked out at 6.96 µM. As for `Cc1cccc2c(=O)c3cccc([C@@H](C)C(=O)O)c3oc12`, the concentration for total growth inhibition (TGI) was above 100 µM. Compound `CCCCNC(=S)/N=C/c1c(O)c2ccccc2[nH]c1=O` displayed a TGI above 10 µM. `O=C1c2nc3n(c2C(=O)c2c1nc1n2CCC1)CCC3` had a TGI of 14.6 µM.

Compound `O=c1ccn(C2OC(CN(O)CCC3C(CO)OC(n4ccc(=O)[nH]c4=O)C3O)C(O)C2O)c(=O)[nH]1` (stereo unspecified) yielded a TGI above 100 µM. For `CC(=O)c1sc(=N)n(-c2c(C)cccc2C)c1C`, the total growth inhibition concentration (TGI) was above 100 µM. `COc1cc(Cl)cc(-c2nn(-c3cccc(NC(=O)Nc4ccc(Cl)c(C(F)(F)F)c4)c3)cc2-c2ccncc2)c1`: the GI50 is 3.36 µM and the TGI was 24.9 µM. Take `ClCc1ccc(Cn2cnc3c(Cl)nc(Cl)nc32)cc1`: the GI50 is 12.7 µM and the TGI stood at 25.2 µM. As for `C=C(C)C12CC3CC/C(=N/O)C(C1)C3(N1CCOCC1)C/C2=N/O` (stereo unspecified), the total growth inhibition concentration (TGI) is above 100 µM. The compound `Cc1ccc2c(=O)cc(-c3sc4ccccc4c3C)[nH]c2n1` yielded a TGI above 100 µM. Compound `COc1cccc(-c2nc(-c3cnccn3)n(COCCO)n2)c1` had a TGI above 100 µM. Same read-out and setting: for `Cc1cccc(C(C)(C)C)c1NC(=O)CC1Sc2ccccc2NC1=O` (stereo unspecified) the value was above 100 µM; for `S=c1[nH]nc(NNc2ccccc2)n1Nc1ccccc1`, above 100 µM. Consider `O=[N+]([O-])c1ccc(Cl)cc1C1SCc2nc3ccccc3n21` (stereo unspecified), for which the TGI came to 86.7 µM. Regarding `CC(=O)c1cc(C)n2c1CS[C@@H]2c1ccccc1`, the TGI was above 100 µM.

As for `COc1cc(C(=O)Nc2cc(C(N)=O)cc(OC)c2OC)cc(NC(=O)/C=C/c2ccccc2)c1OC`, the TGI was above 100 µM. On to `COc1ccc(CCc2nccn2C)cc1OC`, for which the total growth inhibition concentration (TGI) was above 100 µM. Regarding `Cc1cc2c(cc1N)C(C)C1(CCC(=O)N2Cc2ccccc2)OCCO1` (stereo unspecified), the TGI was above 100 µM. Take `Cc1ccc(S(=O)(=O)NCCCSCCSCCCN)cc1`: the TGI was above 100 µM.

On to `O=C(NO)c1ccc(O)c(O)c1`, for which the TGI is above 100 µM. The compound `COCCOC(=O)C(C)=[N+]=[N-]` registered a TGI above 100 µM. Still for that read-out and setting: as for `N#Cc1nc(COCCOCc2ccc(F)cc2)oc1N`, the figure is above 100 µM.

Turning to `CCOC(=O)/C(C#N)=C/c1ccc2c(c1)CC1(C2)Cc2cc(CC)c(C(C)O)cc2C1` (stereo unspecified), the TGI was above 81.7 µM. For the compound `O=C1C=CC(O)C2C1CC13SSC4(CC5C(=O)C=CC(O)C5N4C1=O)C(=O)N23` (stereo unspecified), the TGI was determined as 5.27 µM. `COc1ccc(CCNCCCC2c3ccccc3-c3ccccc32)cc1OC` showed a TGI of 25.6 µM. On to `O=C1NCCS(=O)(=O)/C1=C\C=C\c1cccc(C(F)(F)F)c1`, for which the GI50 was 2.91 µM and the total growth inhibition concentration (TGI) was determined as 12.7 µM. `O=C(CC1C(=O)c2ccccc2C1=C1C(=O)c2ccccc2C1=O)c1ccccc1` (stereo unspecified) had a TGI above 100 µM.

In turn, `c1ccc2c(c1)C1=NCCN1c1ccccc1-2` showed a TGI of 13.4 µM. `CC(Br)C(=O)Nc1ccc(C(=O)O)c(O)c1` (stereo unspecified): the TGI turned out to be 74.1 µM. `CC1OC(OC2C(Oc3cc(O)c4c(c3)O[C@H](c3ccc(O)cc3)CC4=O)OC(CO)C(O)C2O)C(O)C(O)C1O` (stereo partly specified): the TGI is above 100 µM. Same read-out and setting: as for `Cc1cc(-c2nc3cccc(F)c3s2)ccc1N`, the figure is above 100 µM. As for `COC(=O)[C@@H](C)C[C@H](Cc1ccccc1)NC(=O)c1csc([C@@H](C[C@H](C(C)C)N(C)C(=O)[C@H](C)NC(=O)[C@H]2CCCCN2C)OC(C)=O)n1`, the GI50 was 15.8 µM and the TGI is above 25 µM.

Values taken from PubChem BioAssay (NCI).
